Hit rate of the full screen: of about 350,000 compounds, about 9,900 (2.8%) were called active. Inconclusive results, whose numbers are uncertain, are shown with a selection of clear calls. Calls follow the shape of the dose curve; as a rule, active = well fitted activation curve with a large enough effect; inconclusive = small, poorly fitted or top-dose-only effect; inactive = no such curve, though single readings can be large or run the other way. Potencies of inconclusive entries are left out as doubtful fits.
Assay: A quantitative high throughput screen for small molecules that induce DNA re-replication in MCF 10a normal breast cells. Also: nearly all actives have a fitted effect of over 50% in size.
Settings: MCF 10A DNA re-replication, Hoechst nuclear intensity, 48 h; series mostly up to 46.1 µM
With COc1cccc(NC(=O)Nc2nnc(Cc3ccc(OC)c(OC)c3)s2)c1 the Potency was inconclusive [activator, single point].
In the case of CCN(C[C@H]1N[C@@](Cc2ccccc2)(C(=O)OC)[C@H]2C(=O)N(Cc3ccccc3)C(=O)[C@@H]12)C(=O)Nc1ccc(C(F)(F)F)cc1, the Potency is reported as inconclusive [activator, partial curve, poor fit].
In the case of CCCCC(=O)NC(c1ccc(N(CC)CC)cc1)c1ccc2cccnc2c1O (configuration not stated), the Potency is reported as inconclusive [activator, partial curve].
For CCOC(=O)c1sc(/N=C/c2c(O)ccc3ccccc23)cc1C, the Potency was active: 14.6 µM.
In the case of O=C1CCCN1CC(O)CS(=O)(=O)Cc1ccccc1Cl (configuration not stated), the Potency is reported as “inactive”.
For CCC1Nc2ncnc(N3CCN(c4ccccc4)CC3)c2N(Cc2ccc(OC)cc2)C1=O (configuration not stated), the Potency was inconclusive [activator, full curve, poor fit].
In the case of O=C(NC1(C(F)(F)F)NC(=O)N(Cc2cccnc2)C1=O)c1ccccc1 (configuration not stated), the Potency is reported as inconclusive [activator, partial curve, poor fit].
In the case of N/C(CC(=O)Nc1cccc(C(F)(F)F)c1)=N/O, the Potency is reported as inconclusive [activator, partial curve, poor fit].
For CC(=NNC(=O)c1ccncc1)c1cc(Cl)ccc1Cl, the Potency was “inactive”.
For CCOC(=O)C1CCN(C(=O)c2ccc(CNS(=O)(=O)c3ccc(OC)cc3)cc2)CC1, the Potency was inconclusive [activator, partial curve, poor fit].
For CCOC(=O)c1c(C)[nH]c(C)c1C(=O)CSc1nnc(-c2ccc(OC(F)F)cc2)o1, the Potency was inconclusive [activator, partial curve, poor fit].
For CC12CCC(=O)N1C(C(=O)Nc1ccc(Cl)c(Cl)c1)CS2 (configuration not stated), the Potency was “inactive”.
In the case of Cc1ccc(NC(=O)COc2cccc(Oc3ccccc3)c2)cc1S(=O)(=O)N1CCOCC1, the Potency is reported as “inactive”.
With CCOc1ncccc1C(=O)NCc1ccc(C)cc1 the Potency was inconclusive [activator, partial curve, poor fit].
With COc1ccc(-c2csc(NC(=O)[C@H](C)N3C(=O)C4CC=CCC4C3=O)n2)cc1OC (some centres not stated) the Potency was inconclusive [activator, partial curve, poor fit].
With CCOC(=O)c1c(NC(=O)CSc2ncccn2)sc2c1CCN(Cc1ccccc1)C2 the Potency was inconclusive [activator, partial curve, poor fit].
For CCOc1ccc(-c2cc(C(=O)NN=C3CCN(C)CC3)[nH]n2)cc1, the Potency was “inactive”.
In the case of COc1ccc(N/N=C(\C=N\O)C(=O)c2ccc(OC)cc2)cc1, the Potency is reported as active: 6.51 µM.
With CCCC(=O)NC(=S)Nc1c(C)cc(Br)cc1C the Potency was “inactive”.
With C[C@H](CO)N1C[C@H](C)[C@@H](CN(C)S(=O)(=O)c2cccs2)Oc2ccc(NS(=O)(=O)c3ccccc3)cc2CC1=O the Potency was inconclusive [activator, partial curve, poor fit].
With CCN(CC)c1ccc(CN2CCCCCC2)cc1 the Potency was inconclusive [activator, single point].
With CCN(CC)c1ccc2cc(-c3nc(-c4ccc(OC)cc4)cs3)c(=O)oc2c1 the Potency was inconclusive [activator, full curve, poor fit].
With O=C(CCl)Nc1cc2[nH]c(=O)[nH]c2cc1Br the Potency was active: 20.6 µM.
For CN(CCOC(=O)c1cccc(Br)c1)C(C)(C)C, the Potency was inconclusive [activator, single point].
In the case of CC(=O)NCC(=O)N[C@@H](CC(=O)OCc1ccccc1)C(=O)OCc1ccccc1, the Potency is reported as “inactive”.
With CCOC(=O)N1CCN(CC(=O)Nc2nc3ccccc3s2)CC1 the Potency was “inactive”.
In the case of Cc1ccc(S(=O)(=O)N2CCC(=O)N(C(COCc3ccc(C(F)(F)F)cc3)Cc3ccccc3)CC2)cc1 (configuration not stated), the Potency is reported as active: 3.66 µM.
With Cc1ccccc1OC(C)C(=O)Nc1ccc(S(=O)(=O)Nc2nccs2)cc1 (configuration not stated) the Potency was inconclusive [activator, full curve, poor fit].
In the case of CCn1c(=O)n(CCc2ccccc2)c(=O)c2c3c(sc21)CCCC3, the Potency is reported as inconclusive [activator, single point].
For COc1ccc(C)cc1NC(=O)C(=O)NNC(=O)COc1ccc(Cl)cc1, the Potency was active: 20.6 µM.
In the case of Cc1nn(Cc2ccc(Cl)cc2)c(=O)n1N(C)c1ncc(C(F)(F)F)cc1Cl, the Potency is reported as inconclusive [activator, single point].
For Cc1ccc(OCC(=O)Nc2ccc(S(=O)(=O)Nc3ccccn3)cc2)cc1C, the Potency was inconclusive [activator, single point].
In the case of COc1ccc2c(c1)nc(SCC(=O)c1ccc(Br)s1)n2C, the Potency is reported as active: 14.6 µM.
With CCC(=O)NC(=S)Nc1cccc(NC(=O)c2ccccc2C)c1 the Potency was “inactive”.
For CC(C)(C)NC(=O)CN(C(=O)CCN1CCCc2ccccc21)C(C)(C)C, the Potency was inconclusive [activator, single point].
With CCNC(=S)N1CCCCC1CO (configuration not stated) the Potency was inconclusive [activator, single point].
In the case of CC(/C=N/NC(=O)c1ccc(Br)cc1)=C\c1ccccc1, the Potency is reported as “inactive”.
With COc1ccccc1C(C[N+](=O)[O-])c1c(N)n(C)c(=O)n(C)c1=O (configuration not stated) the Potency was inconclusive [activator, single point].
With COc1ccc(NC(=O)CCCc2c[nH]c3ccccc23)cc1OC the Potency was inconclusive [activator, single point].
For Fc1cccc2sc(N3CCCCC3)nc12, the Potency was “inactive”.
In the case of CCc1ccc(C2C(C#N)=C(N)C(C#N)(C#N)C3=CCC(C(C)(C)C)CC32)cc1 (configuration not stated), the Potency is reported as active: 14.6 µM.
In the case of COc1ccc(C(=O)NC(=O)N2CCCCC2)cc1, the Potency is reported as inconclusive [activator, partial curve, poor fit].
For COc1cccc(-c2nc(NC(C)C)c3ccccc3n2)c1O, the Potency was inconclusive [activator, single point].
For CCCCCCCC1CC(CSC(=N)N)OC1=O (configuration not stated), the Potency was inconclusive [activator, single point].
In the case of COc1ccc(C(C(=O)NC2CCCCC2)N(C(=O)CCCC(=O)Nc2ccccn2)c2ccc3c(c2)OCCO3)cc1 (configuration not stated), the Potency is reported as inconclusive [activator, partial curve, poor fit].
In the case of N#CCC(=O)N/N=C/c1cc(-c2ccccc2)n(-c2ccc(Cl)cc2)c1-c1ccccc1, the Potency is reported as inconclusive [activator, partial curve].
For CCc1ccc(CNC(=O)CN2C(=O)COc3ccccc32)cc1, the Potency was inconclusive [activator, full curve, poor fit].
In the case of O=C(Nc1nc2ccccc2n1CCN1CCOCC1)c1ccc(COc2ccccc2Br)o1, the Potency is reported as inconclusive [activator, single point].
For O=C(NC1CCCCC1)c1cccc2c1C(=O)c1ccc(-c3ccc(OC(F)(F)F)cc3)cc1S2(=O)=O, the Potency was active: 0.92 µM.
For CCc1ccc(CN2CCC(n3nccc3NC(=O)c3ccc4c(c3)OCO4)CC2)cc1, the Potency was inconclusive [activator, single point].
In the case of Cc1ccc(N(C(=O)c2ccccc2Cl)C2=NC(C)CS2)c(C)c1 (configuration not stated), the Potency is reported as inconclusive [activator, partial curve, poor fit].
With CC1CCN(C(=O)c2ccc3ccccc3c2)CC1 the Potency was “inactive”.
In the case of Cn1c(CNC(=O)c2ccco2)nnc1SCC(=O)Nc1ccc(Cl)cc1, the Potency is reported as inconclusive [activator, full curve, poor fit].
With CN=C1NN=C(c2cc(C)n(-c3ccc(Cl)cc3)c2C)CS1 the Potency was inconclusive [activator, single point].
With Cc1ccccc1S(=O)(=O)Cc1ccc(C(=O)N(C)C2CCCCC2)o1 the Potency was “inactive”.
For O=C(N/N=C/c1cc(Br)ccc1O)C(c1ccncc1)N1CCOCC1 (configuration not stated), the Potency was inconclusive [activator, single point].
With COCCN(C(=O)CCl)C(C(=O)NC1CCCCC1)c1ccccc1C (configuration not stated) the Potency was inconclusive [activator, single point].
With Cc1ccc(CN(C(=O)c2ccc([N+](=O)[O-])cc2)C2CCS(=O)(=O)C2)o1 (configuration not stated) the Potency was inconclusive [activator, single point].
In the case of N#CC1=C(N)Oc2cc3ccccc3cc2C1c1cccs1 (configuration not stated), the Potency is reported as inconclusive [activator, partial curve, poor fit].
For N#CCc1nn(Cc2ccc(F)cc2)c(=O)c2ccccc12, the Potency was “inactive”.
In the case of c1ccc(C2CNCc3c2ccc2ccccc32)cc1 (configuration not stated), the Potency is reported as inconclusive [activator, single point].
With COc1ccc(C2=NOC(c3nnc(-c4ccccc4)o3)C2)cc1 (configuration not stated) the Potency was “inactive”.
In the case of COc1ccc(CCN(C)Cc2cccc3ccccc23)cc1OC, the Potency is reported as inconclusive [activator, full curve].
For C=CCC1[C@H](C)[C@H]2[C@@H]3CC[C@@H](C3)[C@H]2CN1S(=O)(=O)c1ccc(C)cc1 (some centres not stated), the Potency was “inactive”.
For COc1ccc(N(CC(=O)NC2CCS(=O)(=O)C2)S(=O)(=O)c2ccc(Cl)c(Cl)c2)cc1 (configuration not stated), the Potency was inconclusive [activator, single point].
For Cc1cccc(NC(=O)CSC(N)=O)c1C, the Potency was inconclusive [activator, single point].
In the case of Cn1c(N)c(C(C[N+](=O)[O-])c2ccccc2Cl)c(=O)n(C)c1=O (configuration not stated), the Potency is reported as inconclusive [activator, single point].

— PubChem BioAssay AID624296 (National Center for Advancing Translational Sciences (NCATS), 2012)
Potency is read from the fitted curve at half-maximal effect; tags tell the direction and shape of the fitted curve.
